Consider 89 sequences from the supplement of paper PMC11417369.

Some of the results follow.

This experiment relates to PfSIP2 AP2 domain 1 (GST-tagged). Kind of experiment: gcPBM binding intensity (ln(normalized median fluorescence intensity)); higher = stronger DNA binding. The procedure, abridged: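 DNA-binding domains from P. falciparum, fused to GST and produced in E. coli, were put on an Agilent 4 × 180k double-stranded probe array for 1 h in 1× PBS holding 1% milk, 0.2 mg/ml BSA, 0.5% salmon testes DNA and 0.03% Triton X-100. Probes were primer-extended, 36 bp long and drawn from intergenic genomic regions, with negative controls included. After Alexa488 anti-GST antibody detection and a 488 nm scan, binding intensity was set as the highest Masliner-normalised natural-log median intensity across replicate spots of either probe orientation.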
Take “ATCGAGAAAAATAAAATAATACAATTTCTTTAAATA [XGTACX_negctrl_site162]”: the “gcPBM binding intensity (ln)” value came to 6.75. The value for “AAAAAAAAAAGAACCCGTACATAAATAATATATATA [XGTACX_site164]” was 7.48; that for “TTTTTTTTTTCTTAGGTGCAAAAAATAAGTATATAT [GTGCAC_site9394]” was 10.1; that for “TTTTTTTTGTATTAATGTACATATAACTTTTTTTTT [XGTACX_site7903]” was 6.84. Next, “TAAAAAATAAAATAATGTACATATGAATTATATATT [XGTACX_site8398]”: 6.94; “AAAAAAAAAAAAGAAACACACACATTTGTATATAAT [CACACA_site8648]”: 6.93; “GAAACATAAAAATATATTGAAATAGTATCATGGGTA [CACACA_negctrl_site352]”: 7.09. Turning to “TATAGTTATATTAGAAGTACTTCATTTTAACATATT [XGTACX_site7101]”, the “gcPBM binding intensity (ln)” value was 6.87. Take “TTAATTACATGTTATTGTACGTATTTTCTATCTATC [XGTACX_site844]”: the “gcPBM binding intensity (ln)” value is 7.2.

As to “AAAAAAAAAAATATATTATTTTACTTGTTTATTTTA [CACACA_negctrl_site1447]”, the “gcPBM binding intensity (ln)” value came to 6.68. For the sequence “AAAAAGAAGAATATATGTACACAAAATTTATGAGTT [XGTACX_site8609]”, the “gcPBM binding intensity (ln)” value came to 6.91.

As to “CATTATAAGAAACACACACACATATATATATATATA [CACACA_site1051]”, the “gcPBM binding intensity (ln)” value worked out at 9.23. The value for “AAATTCTTAACCCAACGTACATATAATAAATTCTTA [XGTACX_site8538]” was 6.94; that for “TAAACCAAACAATTATGTATAAGATGTATATATATA [GTGCAC_negctrl_site438]” was 8.9. Next, “AGAAGAAAAGAAATATGTACATAAACGTCTGAACTA [XGTACX_site1699]”: 6.9; “ATAACAAATATGATAGCATGCTACATATTACAACTT [TGCATGCA_site524]”: 6.83.

Regarding “GTTCCATATATTACATGTACATATTTTTACATTTAA [XGTACX_site660]”, the “gcPBM binding intensity (ln)” value came out at 7.34.

“TGATTAATAGCAGGTAGTACTATAATAATATAAATA [XGTACX_site2776]”: the “gcPBM binding intensity (ln)” value came to 7.1. Next, “TGACATAAATTTAATACACACACAAAGAAAAAAAAA [CACACA_site9354]”: 7.06. The value for “TTTAAAAAAAAAAAAAAAAATTCTACATGTAATTTA [CACACA_negctrl_site1205]” was 6.59; that for “ATATATCACATGAACATTAAAAAAAAAAAAGAGGGG [TGCATGCA_negctrl_site187]” was 7.39; that for “ATATCACATTCCACGGTACACACTAATAGAAAAATC [CACACA_site9204]” was 7.42. Next, “TTTATACAATTAGACACACACAAAAAGTATAAATAT [CACACA_site6637]”: 7.01. Take “GGAACATATGAACTCACACACATTTTCACTTAAATA [CACACA_site3684]”: the “gcPBM binding intensity (ln)” value worked out at 6.91. Regarding “TAAAATGATAAATGAATGTGATCATTTTATAAAATA [CACACA_negctrl_site674]”, the “gcPBM binding intensity (ln)” value is 6.65. As to “AATATTTATAAATTTACACACACACCGGTGAACATA [CACACA_site8579]”, the “gcPBM binding intensity (ln)” value came to 6.92. Next, TTTAAACTAGAACAAGTGCAGATATGTATAATAATA: 7.66. On to “TATTTTTAGAAAATAAAGAAGGAGAATTGAAAATAT [CACACA_negctrl_site361]”, for which the “gcPBM binding intensity (ln)” value was 7.06. Next, “ATTTATTTTTATCAAGCATGCATAAAAAATAAATTA [TGCATGCA_site440]”: 6.91; “AAGAAAAGATATATATATAAATATATATATATATAT [TGCATGCA_negctrl_site353]”: 9.35; “TTTTATTTTGGAACGTGTACATATAATTATTTATTG [XGTACX_site8094]”: 7.17. The value for “AAAATATATACAAGCAAACACACGTAATATATATTA [CACACA_site2152]” was 7.02. The value for “ATATTACTAATTAATGGTACACGTTATAATAAACTA [XGTACX_site7051]” was 7.12. As to “GCATAAAATATGATCGCACACTGTTTAAAATACTTA [CACACA_site828]”, the “gcPBM binding intensity (ln)” value turned out to be 6.99. Next, “AGGTAGTTCTGTATCACACACATATAAATATAAATA [CACACA_site7110]”: 7.08; “ATACCTTCTTCATTCACACATATACGTAAAATGTTC [CACACA_site5657]”: 7.53; “CACCTGCACGATTGCACACAAATATGTTTTGAAGAT [CACACA_site2103]”: 8.28. Next, “ACTACATAAAATGACACACACAAACTTTAAAATTTA [CACACA_site3474]”: 7.18; “ATATTTTCTAATCAATGTACTTATTCTACACATTAA [XGTACX_site5774]”: 7.15; “TATATTTGGAAACACACACACAAAAAAAAAAAAAAA [CACACA_site2474]”: 6.99.

Take ATATTTTATGTAAAGGTGCAAAACAACATTAAAAAA: the “gcPBM binding intensity (ln)” value came to 10.5. Next, “ACCCAATTTTTTAGTACACACATATAAATATATAAA [CACACA_site4944]”: 7.44; “TAAAACATGTTTTTATATATTATTATTATATTTATA [XGTACX_negctrl_site8]”: 6.83. The value for “AACACATACAGACACACACACAAAAAAAAAAAAAAA [CACACA_site6322]” was 7.31. Next, “AAACCTTTAGAAAATCGTACAAAACATAACCACCTA [XGTACX_site1098]”: 7.07; “ATTTTTTTTTTTTGTTTTTTCTTACAAATTAAATGA [CACACA_negctrl_site1457]”: 6.92; “AAATAACTCATGGGTTGTACTTAAAAAAAAAAAGAT [XGTACX_site4168]”: 7.15. Take TTTTTTTTTTTTCACGTGCACTATACATATAAGTAA: the “gcPBM binding intensity (ln)” value was determined as 10.5. Next, “CTCTTGTCATTTTGCACACACACATGGATAGGTTAT [CACACA_site5655]”: 7.98.

As for “ATATATACATTTCTATGTACATATGTATATATGTAT [XGTACX_site1522]”, the “gcPBM binding intensity (ln)” value came to 7.18. Next, “TTAATCTAGAGAAATTGTACATTTTATTAACACAAT [XGTACX_site1190]”: 6.89.

In the case of “ATAAAAGAAAACAATAGTACTTTAGTTTTTCTTTTT [XGTACX_site5686]”, the “gcPBM binding intensity (ln)” value is 6.59. The value for “TATATTTTAGTTAATGCATGTGTGCATCCATTTAAA [TGCATGCA_site887]” was 8.9. The value for “ATACATATATATATATGTACACACATTAATAAAAAA [XGTACX_site6874]” was 7.32; that for “TACCAAAATAGACACACACACAAAATATGTAAATAT [CACACA_site6963]” was 6.89; that for “TATAAATAAATTTATACACACACACCCATATATATA [CACACA_site8183]” was 7.39. The value for “AAAAAAAAAAGACACACACACAAATACAAATGGTAA [CACACA_site6906]” was 6.95. For the sequence “TTTGTTATATTTAATACACACATATTATAAACCCAT [CACACA_site3716]”, the “gcPBM binding intensity (ln)” value is 7.38.

Turning to “ATAAAGCCATACAATACACACATTTTACATGGCTGT [CACACA_site5756]”, the “gcPBM binding intensity (ln)” value stood at 6.88. Next, “TAAAATTAGGAAATTGCACACAAAAAAAAACATATT [CACACA_site9349]”: 6.98; “TAAACAAAATATATATGTACATATATATATATATAT [XGTACX_site6502]”: 9.3; “ATCTAGCCATTTTTTAGTACACATAAATAAAAAAAA [XGTACX_site1257]”: 7.64. The value for “CATTAATAACAAAGTTGTACAAGATAATATTATATG [XGTACX_site6832]” was 7.26; that for “TTTTATTTGACAAGCACACACTTAAATATATTTATA [CACACA_site7557]” was 7.25; that for “AAAACATTTTCAAACTGTACACATAGAACTATGCAT [XGTACX_site4087]” was 7.05.

On to “ACATAAGAAGTTATATGTACATATATTTTTTAAATT [XGTACX_site8078]”, for which the “gcPBM binding intensity (ln)” value was found to be 7.12. Next, “TACACAAGAAAATTCACACACACACGGATATTTATA [CACACA_site7765]”: 6.88. Next, “GTATCGAAGTAAATACGTACTTAAATATGTTTAAAA [XGTACX_site1353]”: 6.96; “ACGTACTGCCCTAAAGTGCATATATAATATAAACGA [GTGCAC_site9911]”: 8.48; “CTTTAAACCCTGAACACACACAAATACAGACAAAAA [CACACA_site247]”: 7.12. The value for “GTATTTTAATATAAATGTACATAAATGTTATATATA [XGTACX_site3475]” was 7.16; that for “AATATTGTATATAATAAACACACAATATTAAAAATA [CACACA_site8262]” was 6.99; that for “CATATATAAATCATGTGTACGTATTGAGTATCTACT [XGTACX_site6278]” was 7.34.

For the sequence “AGGATATATAATTAAGTGCATTAATTCAAAATAAAA [GTGCAC_site9702]”, the “gcPBM binding intensity (ln)” value stood at 8.36.

Consider “TTATTATTTTATAACACACACATATATATTATATCT [CACACA_site1434]”, for which the “gcPBM binding intensity (ln)” value came to 7.02.

Regarding “ATAAGATATGTATATACACACATTTATTTACCTATA [CACACA_site7521]”, the “gcPBM binding intensity (ln)” value amounted to 7.02. Next, ATATGACTTAAATATGTGCGCATTTTTTTTTTTTTT: 7.45; “TATGGAAGAAAATATACACACAAAAAAAAAAAATGT [CACACA_site1486]”: 6.96; ATACTTTTATTTTTGGTGCATATATCATGTAGACGT: 10.2. Next, “AATTTATTATTTGTATGTACTCATATGATTCACTTA [XGTACX_site2797]”: 7.07; “AAATGAAATAAATGTAGTACACATATACAATATATA [XGTACX_site6951]”: 6.96. Next, “TATTTTTATACAATTTAACACGGGTTATAAAATGTA [CACACA_negctrl_site566]”: 6.8; “TGTATATCATATATTTGTACTCAATTAATATAAACA [XGTACX_site3970]”: 6.99; “ACATCTAATTTGTATACACACAATAATAAATGGTGA [CACACA_site824]”: 7.11. With “TATATATATTTATAATGTACATATTTTTTTTTATTT [XGTACX_site4761]”, the “gcPBM binding intensity (ln)” value turned out to be 7.41.

“TTGTATATATGACTTTTTTATATTTCAATTTTGTGC [CACACA_negctrl_site296]”: the “gcPBM binding intensity (ln)” value is 6.94. With “TATTAATTTTTAAACATAATTTTTCGTATAATATAT [CACACA_negctrl_site762]”, the “gcPBM binding intensity (ln)” value was 6.74. The value for “GAGATAAAATAAAACACACACATATATTTATATAAC [CACACA_site7098]” was 6.89. Turning to “TTTACTTTCTTATTTTCACACATTTAAAAAAAAATT [CACACA_site5949]”, the “gcPBM binding intensity (ln)” value was determined as 7.53.
